Assay results as given in the supplement of paper PMC10126150.
Sequences with one replicate were seen in a single cluster, so their values are uncertain.

Tested on: ATP
Assay: switch fluorescence ratio, 500 uM ATP over buffer (Cy3 cluster intensity, sum of 5 cycles each) (fold (ratio)); higher = stronger signal-on switching upon ATP binding; sequences stand for … in TCGTCGGCAGCGTCAGATGTGTATAAGAGACAGTTTTTTTTTTTTTTTTTTTTTTTTT…TC
Details: aptamer strand: ATP DNA aptamer (quencher-CACCTGGGGGAGTATTGCGGAGGAAGG + anchor), 100 nM annealed; ATP concentration: 500 uM; one replicate
Method in brief: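 For every switch-domain sequence, the fluorescence ratio is the mean of per-cluster values, each being summed target-cycle Cy3 intensity over summed buffer-cycle Cy3 intensity. Clusters outside 100-1000 RFU were excluded. On a modified Illumina MiSeq flow-cell, the Cy3-labelled switching-strand clusters were annealed to 100 nM quencher-labelled ATP aptamer, imaged in selection buffer and then after 15 min with 500 uM ATP at 22 °C. Five such cycles were run, with NaOH stripping and re-annealing between them.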
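Note: ATP exposure 15 min at 22 °C before imaging.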

Sequence | switch fluorescence ratio
AGACTTATGA | 0.987
AGGCGGAGGG | 1.02
TATGAATGAA | 1.02
ATGACTATAA | 0.981
GCCTAGTGAA | 1.01
CCTGTGAACA | 0.999
CAGCGTTTTT | 0.995
AACCGACCAC | 1.96
AAAATCGGTT | 0.969
ACATTGTACC | 1.14
GGGACCCCAT | 0.999
AAGGGATCAG | 0.989
TACTCTTTAA | 0.984
CTAAAAATGT | 1.27
AATAAGGCTT | 0.953
CTTGAGTTCC | 1
TTGGCTTGGA | 1
CCGGGAGCGT | 1.45
ACGTGGCGAC | 1.18
ACTTACATGA | 1.24
CATGGCTCTG | 1.03
GCTGGATTAT | 0.978
AACCACTGCC | 1.16
TTGCCGGGTA | 1.01
GTTGCTTGGA | 0.965
CTTGGATTGC | 1

Sequence | switch fluorescence ratio
GCGAAATGCA | 0.977
TATCATAACA | 1.02
GCCAACTCCG | 3.79
CCAACTAGA | 1.02
TTTATCATGG | 0.98
TAGTATCTGT | 0.97
GAAACCACGA | 1.15
TAATGTCGCA | 0.995
GGGACCTTAT | 1.04
TAATGGCGCG | 1.02
CACATGGGGT | 1.04
CAACCGACGA | 1.9
AAGGTGCGG | 0.994
CGTGCGGGGC | 1.02
CCAGTCCTGC | 1.02
GTCAAAAAA | 0.964
GCCGGTATTA | 0.991
TCCCAAATAC | 2
TGAGCTCCAG | 1.01
AGCCTTTTAA | 1.01
TGTGTCTGT | 0.988
GACTCCGGT | 1.62
CGCGGGAACC | 1.02
CCGGGATATC | 2.75
TAAGGCCAAA | 1.21
CCAGTTCGCG | 1.01

Sequence | switch fluorescence ratio
GATGGGGGCT | 0.964
TTCGGTGTCC | 1.03
GGAATAAATA | 0.989
TATACCCTCC | 1.48
TTTAACGCTT | 1.03
ACGGGTTATG | 1.05
CGGTAGTGCT | 0.966
TTATGTTAGC | 0.984
TGCCAATCGT | 1
GCGGTAGGGG | 1.01
TACTATCCGT | 1.01
GAGGCCCCCG | 1.04
GGAACGCCG | 0.948
TTTATGGGCT | 1.02
GACTCATTGT | 1
CCACACGG | 1.11
CTATAGCGG | 1.02
ATAGGTCGCG | 0.979
ACGGGAAGTC | 1.1
GGCGACAGCC | 0.989
AACTGGGTT | 0.95
AAATGCTCCG | 1.05
CAGTTGGTCG | 1.05
GCCCCACGTT | 1.01
ATCAGTCATG | 0.987
CTAGCGGCTT | 1

Sequence | switch fluorescence ratio
ATGCATGCAT | 0.989
TCATACTTGT | 1.03
CGGCAAATG | 1.1
ATGGGGAAAA | 0.979
ATAGTTACTG | 1.07
GGAGCGGGAG | 1.16
ACCCAGGTCT | 1.68
ATTCTGTGCG | 0.994
CTATGGGAGA | 0.997
CTAGAAACGC | 0.986
TGGTAAACTT | 1.07
ACTGTCTGCG | 0.997
CGTTAAATTG | 0.983
TGACTTGGAG | 1.02
GACCCGGCAC | 1.09
AACCGCGCGG | 0.99
GTCATTAGTG | 1.01
GGTGAACCGA | 1.02
GAGTTAAT | 1.02
TGCGTAATTT | 1.02
GCATCAGGGT | 1.01
CCTTACGTAG | 1.7
TGTCCAGAA | 1.03
TCATGGGGGC | 1.02
CGGACACAAA | 1.31
TTCAGACACC | 1

Sequence | switch fluorescence ratio
GCCGTGGGGG | 0.974
ATAGAAAGAT | 1
AAGTGTAAAG | 1
CAGCTCGC | 1.02
GGCTACCGTC | 0.97
AACATCTTT | 1.03
CGTGTGTCTT | 0.991
TTAAGTCGGG | 0.983
CATATAAGTG | 1.01
GTGTATGAAC | 1
AATTCTGCAC | 1.04
CGGTCAGTTC | 1.05
GCATTTAGGA | 0.967
AGAGGTGTGT | 0.984
CAGTTCGGGC | 0.98
CTCATCGCAG | 1.46
CCCGGTCACG | 1.03
TAGAAGAATT | 0.982
CGGCCTAGAC | 1.33
GAAGAAGCA | 1.01
GTTTAAATT | 0.957
ATCCACTTTT | 1.04
AAGCGACGGG | 1.01
CGAAAAGGTT | 1.02
TGGATGTGAA | 0.98
TTTGATCCTC | 1

Sequence | switch fluorescence ratio
GTTTATAATT | 0.951
ATTTCAAGTA | 0.997
GTTTTCCTAT | 1.02
TTACTTGGAC | 1.02
TCTGGTGGTG | 1.04
GAGCCAATTT | 1.01
CCCGGCGGGA | 1.19
CGGTTAGCCT | 1.02
AAGGCGCAAG | 1.02
ATAACGGTTC | 1.01
CTTTCCGGC | 1.09
GTGGTCGATC | 1.07
GTTTACATTT | 0.979
CTCATTATAT | 0.962
GAGGTAAGTT | 1.07
AAGATTATAC | 1.01
GGTAGCTCTG | 1.03
AGCTCTGTTT | 1.01
GGAATGGCGG | 0.985
TCTGATTTGA | 1.04
GGTAATCTAA | 1.01
ACGACTAGCT | 1.08
ACATTGGATC | 1.01
TTATATCATT | 1
ATGGCGGTTG | 0.988
GGGGCGCAAC | 3.54

Sequence | switch fluorescence ratio
AAGGACCTTG | 0.991
CTTTGTGTTA | 0.999
ACGCGTTTCT | 1.02
AAGAGAAACG | 1.02
CAGAGCTTTG | 0.991
CTGCGACAAA | 1.03
ACAGTCAGGC | 1.1
AGAGGGGTG | 1.05
CATGACAATT | 1.03
AGCTTCGGAA | 1.41
TGCGGAGTTT | 1.01
AAATCGGAGT | 0.972
CAGATGCTGA | 1.01
GTCGCGAGAG | 1.12
GAGGAGGTAG | 1.02
TGATCATGAT | 1.03
AGCTAAGGCT | 0.995
TCTTCGAGGC | 1.07
GATGGCAGCC | 0.894
AGGGGGCTT | 2.06
GCCCTATGCG | 1.01
CATGTTTCTT | 1.06
TCCTTATAAA | 0.996
TGGTTTGCTT | 1.06
GTGGGACCCA | 0.967
GCGTGTGGAT | 1.01

Sequence | switch fluorescence ratio
CTGTCGGGAT | 1.13
GAGGTAAAA | 0.968
GAGATATGTA | 1.02
TCAGTCCTAG | 0.999
TGCGACCCGT | 1.07
CCTCGTAGGA | 1.03
CATGAAGAGT | 0.98
GTCTTTTGAC | 0.977
AACGAGAATG | 1
TCATAGCTAG | 1.03
GCGTAGAAGG | 1
GTTACGGTAA | 1.1
TCGTTCATAG | 1.03
CGACTGGTAG | 0.96
GAGCTTAGG | 1.05
CTAAAAAGTA | 0.982
GAACTATCAG | 0.995
ATTTGCAGAT | 1.03
CTGCTTTCGG | 0.993
